Sequences with one replicate were seen in a single cluster, so their values are uncertain.
These sequences were tested on ATP (assay: switch fluorescence ratio, 500 uM ATP over buffer (Cy3 cluster intensity, sum of 5 cycles each) (fold (ratio)); higher = stronger signal-on switching upon ATP binding; sequences stand for … in TCGTCGGCAGCGTCAGATGTGTATAAGAGACAGTTTTTTTTTTTTTTTTTTTTTTTTT…TC). Conditions: aptamer strand: ATP DNA aptamer (quencher-CACCTGGGGGAGTATTGCGGAGGAAGG + anchor), 100 nM annealed; ATP concentration: 500 uM; one replicate.
Outline: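 Five buffer/ATP imaging cycles were run on Cy3-labelled switching-strand clusters on a modified Illumina MiSeq flow-cell, with NaOH stripping and re-annealing between cycles. In each cycle, clusters annealed to 100 nM quencher-labelled ATP aptamer were imaged in selection buffer, then after 15 min with 500 uM ATP at 22 °C. Per cluster, the fluorescence ratio is summed target-cycle over summed buffer-cycle Cy3 intensity, averaged per switch-domain sequence. Only clusters within 100-1000 RFU were kept.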
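Further: ATP exposure 15 min at 22 °C before imaging.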

Sequence	switch fluorescence ratio
GATCAAACTA	1.01
GATCAATCCA	0.966
GATCAATTTT	0.96
GATCACATCC	0.975
GATCACATTG	1.03
GATCACCCGA	1.03
GATCACGGTA	1.06
GATCAGGGGA	1.03
GATCATACTG	1.11
GATCATTTGC	0.966
GATCCAAATG	0.982
GATCCACTCA	1.05
GATCCAGGCA	0.989
GATCCCCGCA	1.25
GATCCCCTCT	1.03
GATCCGTCAC	1.32
GATCCTAGGA	0.945
GATCCTCTTG	0.989
GATCGAGTAG	0.993
GATCGATGCT	0.992
GATCGCCATC	1.26
GATCGCGTTG	1.02
GATCGGTCG	0.961
GATCGTTAAT	1.03
GATCGTTAGG	0.985

Sequence	switch fluorescence ratio
GATCTATGAA	0.997
GATCTCTCGA	1.01
GATCTTCTAA	0.993
GATCTTGAAT	0.984
GATGAACAGC	0.948
GATGAACTGA	1.05
GATGAAGATC	1
GATGAGGGC	0.977
GATGAGTAAA	0.964
GATGAGTAGG	1.04
GATGATAAGC	0.985
GATGATGCGT	1.1
GATGATGTAG	0.996
GATGATTTCG	1.02
GATGCAACTT	1.03
GATGCCCTGC	1.04
GATGCCGTA	0.967
GATGCCGTAA	1.06
GATGCGACTT	1.01
GATGCGAGGA	0.917
GATGCGCCCC	1.24
GATGCGTTCC	1.7
GATGCTGGAG	1.06
GATGCTTGGG	1
GATGGAAGAA	0.95

Sequence	switch fluorescence ratio
GATGGAAGCC	1.01
GATGGAGCGT	1.03
GATGGATCT	1.03
GATGGGCGGC	1.05
GATGGGTCAG	1.01
GATGGGTTAA	0.97
GATGGTAT	1.04
GATGGTCGTA	1
GATGGTTTG	0.978
GATGTAGAGT	0.993
GATGTAGATG	0.988
GATGTATTCT	1.01
GATGTCACGG	0.962
GATGTCGGGT	1.02
GATGTTAGCC	1
GATGTTGACA	1.12
GATGTTTCCC	0.963
GATGTTTCGG	0.969
GATTAACCCC	1.23
GATTAAGG	0.965
GATTAATTGT	0.974
GATTCAAATA	1.02
GATTCAGTGC	1.06
GATTCATTTT	1.03
GATTCCTTAA	1.02

Sequence	switch fluorescence ratio
GATTCGAGGC	1.08
GATTCTCACT	0.999
GATTGATTAT	0.991
GATTGCATG	1.02
GATTGCGGAG	0.955
GATTGCTGTT	1.03
GATTGGTAT	0.974
GATTGTGCAT	1.02
GATTGTGCGC	1
GATTGTTACT	1.04
GATTGTTCAT	1.02
GATTTAGAAG	0.998
GATTTAGGAG	1.01
GATTTATAAA	1.01
GATTTCTGTT	0.963
GATTTGGTAT	1
GCAAACGCGG	1.07
GCAAAGATGC	1.06
GCAAATTATA	0.999
GCAAATTCTC	1.16
GCAACACGGG	1.1
GCAACAGGGG	1.89
GCAACCCTGG	1.29
GCAACTCATG	0.98
GCAAGAGCCA	1.01

Sequence	switch fluorescence ratio
GCAAGATATT	1
GCAAGGTGTT	1.32
GCAAGTCCTC	1.06
GCAAGTGTAA	1
GCAAGTGTAC	1.13
GCAAGTTGCC	0.968
GCAATAGTCG	3.37
GCAATATAGC	1.4
GCAATCTAGT	1.11
GCAATGAACA	1.02
GCAATGCTAG	1.74
GCAATTAGTC	1.56
GCAATTCTTC	1.69
GCAATTTTAC	1.54
GCACAAATTT	1.01
GCACAACACA	1.22
GCACAACGTA	1.06
GCACACAATG	1.04
GCACAGTTGG	1.02
GCACCAAAGG	1.05
GCACCATATA	1.03
GCACCGGAAA	1.78
GCACCGTGGC	1.02
GCACCGTTCG	1.03
GCACCTAACG	1.34

Sequence	switch fluorescence ratio
GCACCTGAAG	1.06
GCACGAGATT	1.05
GCACGGAGGA	1.11
GCACTAGCCT	1.02
GCACTGGATG	1.09
GCACTGGCTA	1.03
GCACTGGGAT	1.03
GCACTGTGCT	0.991
GCAGAAGCTT	1.04
GCAGAATGTC	0.978
GCAGAGTAGT	0.989
GCAGATGGGG	1.03
GCAGATTCGC	1.01
GCAGCAAATT	1
GCAGCACAGA	1.08
GCAGCAGCGT	1.04
GCAGCAGGCT	0.998
GCAGCATCG	1.07
GCAGCCGGCA	1.01
GCAGCCGTCA	1.02
GCAGCCTAGG	1.01
GCAGGAAAAG	1.11
GCAGGAACCG	0.997
GCAGGATCAA	0.992
GCAGGGGTGG	1.12

Sequence	switch fluorescence ratio
GCAGGTAACG	1.02
GCAGGTAGCC	1.02
GCAGTAACTC	1.84
GCAGTAAGCG	0.99
GCAGTACATA	1.1
GCAGTAGCCC	1.08
GCAGTCGGGG	1.03
GCAGTGGACT	1.02
GCAGTTAGTA	0.968
GCAGTTATAC	3.63
GCAGTTTCT	1.05
GCATAAATGC	1
GCATAACAAG	1.01
GCATACTGAC	1.49
GCATACTTGG	1.02
GCATAGAGG	0.975
GCATAGGAGT	1.05
GCATAGTTTT	0.965
GCATATATCT	1.06
GCATATGTGC	0.991
GCATCAACAA	1
GCATCACGCC	1.13
GCATCAGTAG	1.04
GCATCATCTT	1.02
GCATCCTAAT	0.963

Sequence	switch fluorescence ratio
GCATCGAACT	1.04
GCATCGTACA	1.14
GCATCGTATC	1.16
GCATGACAGT	1.03
GCATGCTCAT	1.03
GCATGGAAGC	1
GCATGGCATG	0.968
GCATGGCCGG	0.99
GCATGGGGT	1.03
GCATGTGATA	0.988
GCATGTGCGG	0.962
GCATTAATAG	1.03
GCATTACACC	2.39
GCATTATCAC	1.1
GCATTATGGA	1.03
GCATTCAGTT	0.956
GCATTCATTT	1.08
GCATTCGCCA	0.999
GCATTGTAAG	1.01
GCATTGTGGT	1.02
GCATTTGCA	1.02
GCCAAAACGC	0.975
GCCAAAGAGG	1.02
GCCAACCGGT	0.952
GCCAAGACAT	0.998
